Results reported in paper PMC6570896.
Results are given in words; binding and its absence hold for the method and conditions named. In cells and extracts the contact can be indirect. Some results given as binding are weak or reduced against the parent protein; the word gives no strength. For part of these data: Where a sequence is shown, tags or fusion partners need not be part of it.

Sequences of proteins named here, by UniProt entry; tags and fusion partners are left off.
UniProt Q9ZW35: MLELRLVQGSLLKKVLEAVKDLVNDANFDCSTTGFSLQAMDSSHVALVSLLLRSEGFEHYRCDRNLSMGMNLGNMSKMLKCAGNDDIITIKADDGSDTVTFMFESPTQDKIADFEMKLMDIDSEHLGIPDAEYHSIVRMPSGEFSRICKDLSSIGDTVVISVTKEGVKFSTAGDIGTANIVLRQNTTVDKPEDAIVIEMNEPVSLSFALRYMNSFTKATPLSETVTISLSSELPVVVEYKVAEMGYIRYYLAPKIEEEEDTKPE
UniProt P17070: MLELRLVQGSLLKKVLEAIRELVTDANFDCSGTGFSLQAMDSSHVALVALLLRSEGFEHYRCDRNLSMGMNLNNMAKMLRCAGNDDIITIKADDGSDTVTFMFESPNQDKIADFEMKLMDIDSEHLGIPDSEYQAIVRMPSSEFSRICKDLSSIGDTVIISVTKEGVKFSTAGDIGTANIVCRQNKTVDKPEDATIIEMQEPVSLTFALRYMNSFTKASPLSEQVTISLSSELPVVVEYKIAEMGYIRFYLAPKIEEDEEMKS
UniProt Q9M7Q7: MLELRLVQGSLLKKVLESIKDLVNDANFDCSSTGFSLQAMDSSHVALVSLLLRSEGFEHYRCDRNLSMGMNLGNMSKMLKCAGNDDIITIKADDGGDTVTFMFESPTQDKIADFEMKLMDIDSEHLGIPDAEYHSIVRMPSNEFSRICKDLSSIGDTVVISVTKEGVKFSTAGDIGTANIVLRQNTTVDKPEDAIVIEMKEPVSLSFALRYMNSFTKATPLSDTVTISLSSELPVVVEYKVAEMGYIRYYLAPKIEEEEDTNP

Experiments:
Assay in all cases: split reporter; BiFC: fusions to YFP^N (1-155 aa) and YFP^C (156-239 aa) co-expressed transiently in Nicotiana benthamiana leaf epidermal cells; YFP seen by confocal microscopy
[1] = target: AtRFC4-YFP^N (Arabidopsis thaliana) (UniProt Q93ZX1)
[2] = target: AtRFC4 Δ320–339 (Arabidopsis thaliana) (UniProt Q93ZX1)
[3] = target: T1, AtRFC2 Δ314–333 (Arabidopsis thaliana) (UniProt Q9CAM7)
T1 sequence: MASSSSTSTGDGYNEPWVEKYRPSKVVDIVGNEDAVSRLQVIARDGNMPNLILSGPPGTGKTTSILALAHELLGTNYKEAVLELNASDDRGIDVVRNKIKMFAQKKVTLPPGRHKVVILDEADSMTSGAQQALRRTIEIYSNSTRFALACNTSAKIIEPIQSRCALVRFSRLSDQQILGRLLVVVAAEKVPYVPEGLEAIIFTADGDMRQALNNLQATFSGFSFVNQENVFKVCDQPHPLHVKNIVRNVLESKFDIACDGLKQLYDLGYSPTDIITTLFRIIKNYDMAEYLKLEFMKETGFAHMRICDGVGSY

[4] = target: T2, AtRFC2 without the N-terminal 224 aa (Arabidopsis thaliana) (UniProt Q9CAM7)
T2 sequence: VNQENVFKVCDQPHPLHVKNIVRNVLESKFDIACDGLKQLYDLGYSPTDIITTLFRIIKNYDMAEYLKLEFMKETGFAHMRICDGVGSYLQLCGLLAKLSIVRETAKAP

[5] = target: T3, AtRFC4 Δ1–213 (Arabidopsis thaliana) (UniProt Q93ZX1)
T3 sequence: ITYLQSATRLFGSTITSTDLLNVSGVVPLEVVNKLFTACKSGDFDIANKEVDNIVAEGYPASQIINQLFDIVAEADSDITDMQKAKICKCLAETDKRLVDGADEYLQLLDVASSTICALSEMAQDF

[6] = target: T4, AtRFC2 Δ294–333 (Arabidopsis thaliana) (UniProt Q9CAM7)
T4 sequence: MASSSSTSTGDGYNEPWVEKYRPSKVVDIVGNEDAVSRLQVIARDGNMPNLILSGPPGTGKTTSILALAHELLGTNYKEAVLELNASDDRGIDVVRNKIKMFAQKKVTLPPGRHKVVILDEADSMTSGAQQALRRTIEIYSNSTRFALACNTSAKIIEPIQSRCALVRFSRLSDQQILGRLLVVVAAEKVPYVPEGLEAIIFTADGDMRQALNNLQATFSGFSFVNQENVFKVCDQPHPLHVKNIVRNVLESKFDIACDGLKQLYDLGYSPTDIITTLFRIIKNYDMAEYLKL

[7] = target: T5, AtRFC1-YFP^N (Arabidopsis thaliana) (UniProt Q9C587)
T5 sequence: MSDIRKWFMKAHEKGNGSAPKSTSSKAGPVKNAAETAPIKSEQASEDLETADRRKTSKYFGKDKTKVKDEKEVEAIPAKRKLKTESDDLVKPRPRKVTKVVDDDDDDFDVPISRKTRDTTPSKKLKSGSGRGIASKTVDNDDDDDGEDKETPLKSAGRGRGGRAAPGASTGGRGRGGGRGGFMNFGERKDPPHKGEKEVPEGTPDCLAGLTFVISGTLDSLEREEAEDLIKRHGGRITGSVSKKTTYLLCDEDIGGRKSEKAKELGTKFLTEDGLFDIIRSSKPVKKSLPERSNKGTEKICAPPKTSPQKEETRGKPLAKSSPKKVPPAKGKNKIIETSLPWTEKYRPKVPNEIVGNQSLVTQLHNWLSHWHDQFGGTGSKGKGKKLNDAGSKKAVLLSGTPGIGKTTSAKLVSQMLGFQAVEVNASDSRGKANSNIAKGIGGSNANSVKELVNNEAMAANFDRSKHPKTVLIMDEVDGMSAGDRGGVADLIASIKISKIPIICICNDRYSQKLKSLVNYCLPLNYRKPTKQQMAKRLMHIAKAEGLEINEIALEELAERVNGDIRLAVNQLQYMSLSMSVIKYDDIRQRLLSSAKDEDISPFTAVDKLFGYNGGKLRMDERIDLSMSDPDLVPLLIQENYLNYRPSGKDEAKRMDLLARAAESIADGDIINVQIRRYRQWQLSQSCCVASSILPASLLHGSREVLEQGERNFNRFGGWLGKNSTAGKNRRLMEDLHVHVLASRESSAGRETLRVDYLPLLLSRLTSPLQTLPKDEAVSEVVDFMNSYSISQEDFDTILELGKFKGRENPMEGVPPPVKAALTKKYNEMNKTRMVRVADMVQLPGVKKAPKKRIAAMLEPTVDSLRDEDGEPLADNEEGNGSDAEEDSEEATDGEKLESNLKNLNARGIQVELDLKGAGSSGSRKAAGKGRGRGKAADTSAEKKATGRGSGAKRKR

[8] = target: AtRFC4 ΔC300–339 (Arabidopsis thaliana) (UniProt Q93ZX1)

binding [1]	binding [2]	binding [3]	binding [4]	binding [5]	binding [6]	binding [7]	binding [8]	Substance
binds	binds	binds	binds	binds	no binding	no binding	no binding	AtPCNA2-YFP^C (from UniProt Q9ZW35 1-264)
binds						no binding		OsPCNA-YFP^C (from UniProt P17070 1-263)
binds	binds	binds	binds	binds	no binding	no binding	no binding	AtPCNA1-YFP^C (from UniProt Q9M7Q7 1-263)
